# Assay results as given in PubChem BioAssay AID1745845 (National Center for Advancing Translational Sciences (NCATS), 2022).
# Hit rate of the full screen: of about 360,000 compounds, about 2,600 (0.72%) were called active. The inconclusive results got no clear call from the source; some entries with a clear call stand among them for comparison. Calls follow the shape of the dose curve; as a rule, active = well fitted inhibition curve with a large enough effect; inconclusive = small, poorly fitted or top-dose-only effect; inactive = no such curve, though single readings can be large or run the other way. Where the call is inconclusive, the potency comes from a doubtful curve fit.
# Assay: Primary qHTS for Inhibitors of ATXN expression; also: nearly all actives have a fitted effect of over 55% in size
# Conditions: HEK-293 ATXN2-luciferase reporter, luminescence, 24 h; activity change, negative = inhibition: at 57 µM (top of the series)
# Summary of the method: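 ATXN2-luciferase reporter cells (luciferase flanked by upstream and downstream ATXN2 gene portions) were treated 24 h at 37 °C with compounds at up to 57 uM. SteadyGlo luminescence gave expression; GF-AFC fluorescence gave viability.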
# % is scaled to controls: 0 for no effect and ±100 for the full control effect; potency is read from the fitted curve at half-maximal effect; tags tell the direction and shape of the fitted curve.
Compound,Potency,"activity change, negative = inhibition"
Cc1ccc([C@H]2C[C@H](O)[C@@H](n3cc(COC(=O)c4ccccc4)nn3)CN2C(=O)C2CCCCC2)cc1,"inconclusive: 39.8 µM [inhibitor, single point]",
CCOC(=O)c1c(C)[nH]c(C(=O)N/N=C\c2ccccc2O)c1C,"inconclusive: 7.94 µM [inhibitor, full curve]",
S=C(Nc1cccc(Cl)c1Cl)NC1CCN(Cc2ccccc2)CC1,"inconclusive: 14.1 µM [inhibitor, partial curve, poor fit]",
CCc1ccc(OC(=O)/C=C/c2ccco2)cc1,inactive,
O=C(OCn1ncc(Cl)c(Cl)c1=O)c1cccc(C(F)(F)F)c1,"inconclusive: 28.2 µM [inhibitor, single point]",
O=C(COC(=O)c1ccc(F)c([N+](=O)[O-])c1)NC(=O)NCc1ccccc1,"inconclusive: 25.1 µM [inhibitor, single point]",
COc1ccc(CCn2c(N)c(C(=O)NCc3ccco3)c3nc4ccccc4nc32)cc1OC,"inconclusive: 25.1 µM [inhibitor, single point]",
CC(C)CC(COCc1ccc(Cl)cc1)N1CCN(C(=O)c2ccc(Cl)cc2Cl)CCC1=O (centres undefined),"inconclusive: 31.6 µM [inhibitor, single point]",
C/C(=N\OCC(=O)N/N=C/c1ccc(C)cc1O)c1cccs1,"inconclusive: 20 µM [inhibitor, partial curve, poor fit]",
CCn1cc(C(=O)N2CCN(c3cc(Cl)ccc3C)CC2)c(=O)c2cc(S(=O)(=O)N3CCCCC3)ccc21,inactive,
O=C(NCCn1cc(SCc2ccc(F)cc2)c2ccccc21)c1cccs1,"inconclusive: 39.8 µM [inhibitor, single point]",
COC(=O)C1=C(C)N(C(C)C)C(=O)C1(NC(=O)c1ccc(C(C)(C)C)cc1)C(F)(F)F (centres undefined),inactive,
O=C(CSc1nc(-c2ccccc2)nc2cc(=O)[nH]n12)Nc1ccccc1,inactive,
COc1cc(C2C(C(=O)C(C)(C)C)=C(O)C(=O)N2Cc2ccccc2)ccc1O (centres undefined),,inconclusive: -50.1% [inhibitor]
CC(C)C1C(=O)N(Cc2cn(CC3CCCCC3)nn2)CCS(=O)(=O)N1Cc1ccc(-c2ccc(F)nc2)cc1 (centres undefined),"inconclusive: 35.5 µM [inhibitor, partial curve, poor fit]",
C/C(=N\NC(=O)c1c[nH]c2ccccc12)c1ccc(C)s1,inactive,
Nc1c(S(=O)(=O)c2cccs2)c2nc3ccccc3nc2n1Cc1ccc2c(c1)OCO2,inactive,
CC(C)=CCC/C(C)=C/CNC(=O)CC1C[C@H](C(=O)N2CCOCC2)[C@@]2(C)c3[nH]c4ccccc4c3CCN2C1=O (some centres undefined),"inconclusive: 39.8 µM [inhibitor, single point]",
O=C1Nc2ccc(Br)cc2/C1=C/C1CC=CCC1 (centres undefined),"inconclusive: 39.8 µM [inhibitor, single point]",
COc1cc(CNCCSc2nnnn2C)ccc1OCc1ccc(Cl)cc1Cl,"inconclusive: 39.8 µM [inhibitor, single point]",
Cc1cccc(C)c1NC(=O)c1sc(-n2nc(C)c(Cc3ccc4c(c3)OCO4)c2C)nc1C,inactive,
CCC(C(=O)Nc1ccc(C)c(Cl)c1)n1c(=O)c(-c2ccccc2NC(C)=O)nc2ccccc21 (centres undefined),"inconclusive: 39.8 µM [inhibitor, partial curve, poor fit]",

Compound,Potency,"activity change, negative = inhibition"
Cc1ccc(/C([O-])=C(/C(=S)NCc2ccccc2)[n+]2cccc(CO)c2)cc1[N+](=O)[O-],inactive,
O=C1C(O)=C(O)C(=O)C(O)=C1O,inactive,
O=C1[C@@H](Oc2ccccc2)[C@@H](c2cccnc2)N1c1ccccc1,"inconclusive: 14.1 µM [inhibitor, partial curve, poor fit]",
On1onc2c3cc(-c4ccccc4)nc3ccc21,"inconclusive: 25.1 µM [inhibitor, single point]",
CCc1ccc(NC(=O)C(Cc2ccccc2)NS(=O)(=O)c2ccc3c(c2)c(=O)n(C)c(=O)n3C)cc1 (centres undefined),inactive,
C(=N\Nc1nc2ccccc2[nH]1)/c1ccc2ncccc2c1,"inconclusive: 12.6 µM [inhibitor, partial curve, poor fit]",
CC(C)c1ccccc1NC(=S)N1CCN(Cc2ccc3c(c2)OCO3)CC1,"inconclusive: 8.44 µM [inhibitor, single point]",
CC(C)(C)c1ccc(/C=C2\Oc3cc(O)ccc3C2=O)cc1,inactive,
Oc1ccc(N2CCN(c3nc(-c4cccs4)nc4ccccc34)CC2)cc1,"inconclusive: 31.6 µM [inhibitor, single point]",
CC(C)CC(N)c1csc(Nc2ccc(C(=O)N(C)Cc3ccccc3)cn2)n1 (centres undefined),active: 28.2 µM,
O=C(N/N=C/c1c(F)cccc1Cl)c1ccc(Cn2cc(Br)cn2)o1,inactive,
COC(=O)C1=C(C)N(Cc2ccccc2)C(=NCc2cccc(Cl)c2)N[C@H]1c1cccc(F)c1,"inconclusive: 39.8 µM [inhibitor, single point]",
O=C(Nc1ccccc1N1CCN(C(=O)c2ccccc2)CC1)c1ccc(Br)o1,"inconclusive: 20 µM [inhibitor, partial curve, poor fit]",
COc1ccc(-c2nc(CCNC(=O)c3ccc(Br)o3)cs2)cc1,"inconclusive: 15 µM [inhibitor, partial curve, poor fit]",
COC(=O)c1[nH]c2ccccc2c1NC(=O)CN1CCN(c2cccc(OC)c2)C(C)C1 (centres undefined),"inconclusive: 20 µM [inhibitor, partial curve, poor fit]",
O=C(Cn1nc2ccccc2n1)N/N=C/c1cc([N+](=O)[O-])ccc1O,active: 20 µM,
CCOC(=O)c1ccc(N2C(=O)c3n[nH]c(-c4ccco4)c3C2c2cccc(O)c2)cc1 (centres undefined),"inconclusive: 39.8 µM [inhibitor, single point]",
Cc1ccc(Nc2nc(NCc3cccs3)nc3ccsc23)c(C)c1,"inconclusive: 35.5 µM [inhibitor, single point]",
O=C(CCN1C(=O)/C(=C/c2ccc3c(c2)OCO3)SC1=S)NNC(=O)c1cccnc1,"inconclusive: 37.7 µM [inhibitor, single point]",
Cc1ccc(C(=O)CN2C(=O)c3ccccc3S2(=O)=O)cc1,active: 1 µM,
CCN(CC)CCOC(=O)c1ccc(NC(=O)CCCN2C(=O)/C(=C\c3cccs3)SC2=S)cc1,"inconclusive: 39.8 µM [inhibitor, single point]",
CCN(CC)S(=O)(=O)c1cc(NC(=O)Cc2ccsc2)ccc1C,inactive,

Compound,Potency,"activity change, negative = inhibition"
O=C(c1cc(C2CC2)nn1-c1ccccc1)N1CCN(Cc2ccc(Cl)cc2)CC1,"inconclusive: 0.947 µM [inhibitor, partial curve, poor fit]",
COc1cccc(C(=O)/C=C/Nc2ccc(S(=O)(=O)Nc3cccc(C(C)=O)c3)cc2)c1,"inconclusive: 15.8 µM [inhibitor, partial curve, poor fit]",
Cc1ccc(Cl)cc1NC(=O)c1ccc(Cn2cc(Cl)cn2)cc1,"inconclusive: 7.94 µM [inhibitor, partial curve, poor fit]",
O=C(CNC(=O)c1cccs1)c1ccc(F)cc1,"inconclusive: 39.8 µM [inhibitor, single point]",
COCC(C)Nc1ncnc2c1cnn2-c1ccc(C)c(C)c1 (centres undefined),inactive,
Cc1ccnc(NC(=O)CSc2cc(=O)n(C)c3ccccc23)c1,"inconclusive: 17.8 µM [inhibitor, partial curve]",
FC(F)(F)c1ccccc1Cc1c(-c2ccco2)nc2ccc(Br)cn12,"inconclusive: 25.1 µM [inhibitor, single point]",
O=C(c1ccc(Cl)c(S(=O)(=O)N2CCCCCC2)c1)N1CCN(c2ccccn2)CC1,"inconclusive: 25.1 µM [inhibitor, single point]",
CCOc1ccc(-n2c(-c3ccc(Br)cc3)c[n+]3c2CCCCC3)cc1,"inconclusive: 14.1 µM [inhibitor, partial curve]",
CC(C)(CO)NC(=O)c1ccc2c(c1)C(=O)c1ccccc1-2,inactive,
Cc1cc(NC(=O)CSC2=Nc3ccccc3C3=NC(Cc4ccccc4)C(=O)N23)n[nH]1 (centres undefined),"inconclusive: 39.8 µM [inhibitor, partial curve, poor fit]",
CCOc1ccc(Cl)cc1-c1cc(C(=O)NCc2cc(C(F)(F)F)cc(C(F)(F)F)c2)[nH]n1,"inconclusive: 39.8 µM [inhibitor, single point]",
COc1ccccc1-c1nnc(NC(=O)c2ccc(S(=O)(=O)N3CCOCC3)cc2)o1,"inconclusive: 0.141 µM [inhibitor, full curve, poor fit]",
Cc1cc(C)cc(Oc2coc3cc(OC(=O)c4cccs4)ccc3c2=O)c1,inactive,
COCCN(CC1CCCN(C2Cc3ccccc3C2)C1)C(=O)CCC(C)=O (centres undefined),inactive,
Cc1ccc(-c2ccc(CN3C(C(C)C)C(=O)N(Cc4cn(CCC5OCCO5)nn4)CCS3(=O)=O)cc2)c(C)c1 (centres undefined),"inconclusive: 25.1 µM [inhibitor, single point]",
c1ccc2c(c1)N1CCCN=C1N2CCN1CCCCC1,inactive,
CCc1cc(-c2nnn(CCC3COCCO3)c2CC)ccc1-c1cn(Cc2ccccc2)nn1 (centres undefined),"inconclusive: 39.8 µM [inhibitor, single point]",
Cc1ccc(-c2csc(N3CCN(c4cc5c(cc4Cl)nc(C)n5CCN4CCCCC4)CC3)n2)cc1,"inconclusive: 5.62 µM [inhibitor, full curve, poor fit]",
CC[C@@H]1Cc2cc(O)ccc2C2=C1c1ccc(O)cc1C[C@H]2CC,"inconclusive: 35.5 µM [inhibitor, single point]",
